Values marked as one replicate rest on one cluster of the flow cell; about a third of the high ones do not repeat.
Tested on: ATP
Experiment: switch fluorescence ratio, 500 uM ATP over buffer (Cy3 cluster intensity, sum of 5 cycles each) (fold (ratio)); higher = stronger signal-on switching upon ATP binding; sequences stand for … in TCGTCGGCAGCGTCAGATGTGTATAAGAGACAGTTTTTTTTTTTTTTTTTTTTTTTTT…TC
Conditions: aptamer strand: ATP DNA aptamer (quencher-CACCTGGGGGAGTATTGCGGAGGAAGG + anchor), 100 nM annealed; ATP concentration: 500 uM; one replicate
Outline: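 Clusters carrying Cy3-labelled switching strands on a modified Illumina MiSeq flow-cell were annealed to 100 nM quencher-labelled ATP aptamer and imaged in selection buffer. They were imaged again after 15 min with 500 uM ATP at 22 °C, over five buffer/ATP cycles with NaOH stripping and re-annealing in between. For each cluster, the fluorescence ratio is the summed Cy3 intensity of the target cycles divided by that of the buffer cycles, averaged per switch-domain sequence. Clusters outside 100-1000 RFU were left out.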
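Also: ATP exposure 15 min at 22 °C before imaging.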

| Sequence | switch fluorescence ratio |
| --- | --- |
| TAGTGTTAAC | 1.03 |
| CATTGTGTAA | 1.06 |
| ACTGGAGGAA | 1.84 |
| AAGTAATGAT | 0.989 |
| TTGTACCAGC | 1.06 |
| CCATTGACCA | 1.1 |
| ACGGTATTCA | 1.1 |
| TAGAATATGG | 0.992 |
| AAATGCTGCG | 1.01 |
| AGTTACTAGA | 1.03 |
| CTGTGTGGGC | 1.01 |
| TCCCCTAATC | 1.07 |
| CGGGCTACTG | 1.12 |
| AGTTGGGAG | 1.01 |
| TATTATCTCG | 1 |
| TATTGCTTAC | 1.17 |
| GTCATACTAT | 1.01 |
| CATATTCGTT | 1.01 |
| GGGTTTGATA | 1.01 |
| TGGCGATTGA | 0.966 |
| AGCGATTCAT | 1.02 |
| ACATCGCTGG | 1.09 |

| Sequence | switch fluorescence ratio |
| --- | --- |
| GAGACCATG | 0.969 |
| TATTGAGGAT | 0.966 |
| TGGATACAAG | 0.988 |
| AACTTGGCTC | 1.81 |
| GGGCACCAGA | 0.958 |
| GTGTCGCAGG | 0.969 |
| AGATAGTATG | 1.02 |
| ATATTGCGTG | 1.02 |
| CTGGGGGGA | 1.01 |
| TAGAGGTGCT | 1.02 |
| GTGGGTAAGT | 0.99 |
| CAGAGTACCT | 1.05 |
| AAATAAGC | 0.945 |
| GGACGGGTCT | 1.01 |
| CTCGACTTCT | 0.971 |
| GGGACCGGGT | 1.03 |
| GCCAAACGTG | 0.981 |
| CCAATGGCTA | 1.13 |
| ATTGCTTGGC | 0.909 |
| GACCAGAGCT | 1.12 |
| TCTCGCGTTG | 0.98 |
| AAGGGCTT | 1.02 |

| Sequence | switch fluorescence ratio |
| --- | --- |
| CTTCCAAACG | 1.61 |
| ACTCACTGTT | 1.17 |
| AGAATGACGG | 0.997 |
| CAAGCCTCTG | 1.01 |
| GACTACACTT | 1.25 |
| CTCTTGTAGG | 0.943 |
| GATGTGCCGG | 0.979 |
| CATTTAGTCA | 1.03 |
| GACGTGCGAG | 0.966 |
| GCAGGGGTGC | 1.01 |
| CCACCTTCG | 1.73 |
| CGCACACTT | 1.36 |
| AATGGCCCCC | 1 |
| AGCGTCTTCC | 1.13 |
| TTTTAATGCC | 0.986 |
| AAGGTACTAG | 1.07 |
| TTTCTTATCA | 1.02 |
| TCGTAATAGA | 0.994 |
| TTGCACTATC | 1.08 |
| CTCTAAAACA | 1.03 |
| GGTTTCATCT | 0.982 |
| AGCTATTATT | 0.985 |

| Sequence | switch fluorescence ratio |
| --- | --- |
| CGGTGAACTA | 1.04 |
| GGAACCTTG | 1.08 |
| TGCTGTGTGT | 0.984 |
| GAGAATATG | 0.973 |
| AATCGTCTGC | 0.989 |
| ACGATAAAGA | 1.04 |
| GACGGTGAGG | 0.979 |
| TTTTGGTCG | 1.05 |
| GTAATTCCAT | 0.999 |
| ATTATTCTAT | 1.02 |
| CCCGGTCCAT | 1.04 |
| TTTCATGAAG | 0.977 |
| CTCATATAAA | 0.964 |
| TGCAACCTGG | 1.02 |
| AGGATTTTTA | 0.975 |
| TGGAAATCAC | 1.05 |
| CTGGGCTCCA | 1.02 |
| TTAGCCTGGG | 1.01 |
| TTTAGACCTA | 1.03 |
